{"source": "paper PMC6919601", "about": "“Identification of Plasmodium dipeptidyl aminopeptidase allosteric inhibitors by high throughput screening” (PLoS ONE, 2019)", "note": "Among all 110,000 compounds or so, about 230 (0.21%) showed an effect of 50% or more. The list shows a part of the results.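 Also: 30 min substrate incubation versus DMSO and 10 µM JCP410 controls.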"}
{"biological_target": "DPAP1 (Plasmodium falciparum, UniProt Q8IIJ9)", "sequence (Q8IIJ9 whole entry, looked up)": "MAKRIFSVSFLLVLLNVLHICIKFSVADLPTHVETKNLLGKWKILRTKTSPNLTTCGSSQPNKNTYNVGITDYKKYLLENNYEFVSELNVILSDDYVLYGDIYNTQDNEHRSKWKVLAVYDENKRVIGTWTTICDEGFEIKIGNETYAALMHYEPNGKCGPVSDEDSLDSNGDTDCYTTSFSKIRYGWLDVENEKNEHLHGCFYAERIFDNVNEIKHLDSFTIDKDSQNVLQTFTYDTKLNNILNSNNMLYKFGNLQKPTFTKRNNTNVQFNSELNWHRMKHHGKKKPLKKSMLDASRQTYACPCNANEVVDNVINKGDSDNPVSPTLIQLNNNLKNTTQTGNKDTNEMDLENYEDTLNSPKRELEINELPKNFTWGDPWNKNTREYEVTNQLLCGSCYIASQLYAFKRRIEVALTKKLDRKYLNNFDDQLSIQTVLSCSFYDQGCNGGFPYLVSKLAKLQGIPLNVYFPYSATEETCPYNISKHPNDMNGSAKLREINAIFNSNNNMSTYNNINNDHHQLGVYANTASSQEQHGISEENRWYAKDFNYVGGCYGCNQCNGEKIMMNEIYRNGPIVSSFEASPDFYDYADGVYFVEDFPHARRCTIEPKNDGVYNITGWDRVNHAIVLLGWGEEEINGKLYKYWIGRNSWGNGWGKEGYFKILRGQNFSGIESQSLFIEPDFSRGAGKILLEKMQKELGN", "experiment": "primary screen, percent inhibition; read by cleavage of a fluorogenic dipeptide substrate; higher = more effect of the substance", "set-up": "species or system P. falciparum D10 trophozoite lysates; single well", "units": {"% Inhibition @ 10 uM": "%"}}
{"smiles": "Cc1ccc(C(=O)N/C(=C/c2ccco2)C(=O)NCC2CCCO2)cc1", "note": "(stereo not drawn)", "% Inhibition @ 10 uM": -6.69}
{"smiles": "COc1ccccc1NC(=O)c1c(-c2ccccc2)noc1C", "% Inhibition @ 10 uM": -4.21}
{"smiles": "O=C(O)c1ccc2nc(-c3ccc(-c4nc5ccc(C(=O)O)cc5o4)cc3)oc2c1", "% Inhibition @ 10 uM": -7.71}
{"smiles": "O=C(O)C1=NN(c2ccccc2)C(=O)/C1=C\\c1ccc2c(c1)OCO2", "% Inhibition @ 10 uM": 2.65}
{"smiles": "CCCN(CCC)S(=O)(=O)c1ccc(C(=O)Nc2nc(-c3ccc(F)cc3)cs2)cc1", "% Inhibition @ 10 uM": 2.79}
{"smiles": "CCC1CCCCN1C(=O)Cn1c(SCc2cccc(C)c2)nc2ccncc21", "note": "(stereo not drawn)", "% Inhibition @ 10 uM": -0.637}
{"smiles": "Cc1nc(NCCO)nc(NCCO)c1[N+](=O)[O-]", "% Inhibition @ 10 uM": -0.239}
{"smiles": "O=C(NCc1ccccc1)C(O)(c1ccc(F)cc1)c1ccc(F)cc1", "% Inhibition @ 10 uM": -2.86}
{"smiles": "CN(C)c1ccc([N+](=O)[O-])c2nonc12", "% Inhibition @ 10 uM": 5.66}
{"smiles": "COCCN1C(=O)c2ccccc2C(C(=O)NCCC2=CCCCC2)C1c1cccs1", "note": "(stereo not drawn)", "% Inhibition @ 10 uM": -7.34}
{"smiles": "COc1ccc(OC)c(NC(=O)Cc2ccc(OC)c(OC)c2)c1", "% Inhibition @ 10 uM": -2.17}
{"smiles": "CCOC(=O)C1=C(C)N=c2s/c(=C\\c3cccnc3)c(=O)n2C1c1ccc(OC)cc1", "note": "(stereo not drawn)", "% Inhibition @ 10 uM": 3.61}
{"smiles": "Cn1c(=O)c2c(nc3n(Cc4ccccn4)c(C45CC6CC(CC(C6)C4)C5)cn23)n(C)c1=O", "% Inhibition @ 10 uM": -7.46}
{"smiles": "CCOC(=O)C1=C(C)N=c2s/c(=C\\c3cccc(O)c3)c(=O)n2C1c1ccccc1Cl", "note": "(stereo not drawn)", "% Inhibition @ 10 uM": -5.28}
{"smiles": "Cc1ccc(Cn2nc(C)c(NC(=O)c3cc4n(n3)C(C(F)(F)F)CC(c3ccco3)N4)c2C)cc1", "note": "(stereo not drawn)", "% Inhibition @ 10 uM": 0.778}
{"smiles": "CCOC(=O)c1cc(-c2ccccc2)sc1NC(=O)CC", "% Inhibition @ 10 uM": -2.87}
{"smiles": "Cc1c(CN(C)C(=O)c2cc3nc(-c4cccs4)cc(C(F)(F)F)n3n2)cnn1C", "% Inhibition @ 10 uM": -1.35}
{"smiles": "COc1ccc(S(=O)(=O)Nc2ccc(-c3cn4ccsc4n3)cc2)cc1", "% Inhibition @ 10 uM": 0.726}
{"smiles": "CCCNC(=O)CCc1nc(-c2ccc(C)cc2)no1", "% Inhibition @ 10 uM": -2.21}
{"smiles": "NC(=O)C1CCN(C(=O)CN2CCN(Cc3ccc4c(c3)OCO4)CC2)CC1", "% Inhibition @ 10 uM": -5.51}
{"smiles": "COc1ccc(-c2noc(CN(C)C(=O)c3c(-c4ccccc4Cl)noc3C)n2)cc1", "% Inhibition @ 10 uM": 4.31}
{"smiles": "CN(CC(=O)Nc1ccccc1Sc1ccccc1)S(=O)(=O)c1ccccc1", "% Inhibition @ 10 uM": -3.26}
{"smiles": "Cc1cc(C)n2nc(N3C(=O)CCC3=O)nc2n1", "% Inhibition @ 10 uM": 6.7}
{"smiles": "CCN(c1ccccc1)S(=O)(=O)c1ccc(NC(=O)Nc2ccccc2)cc1", "% Inhibition @ 10 uM": -1.44}
{"smiles": "COC(=O)c1cc(S(=O)(=O)NCC(C)c2ccccc2)cn1C", "note": "(stereo not drawn)", "% Inhibition @ 10 uM": -6.86}
{"smiles": "CCOc1ccccc1/C=C(\\C#N)c1nc(-c2ccc([N+](=O)[O-])cc2)cs1", "% Inhibition @ 10 uM": -4.11}
{"smiles": "Cc1cc(C)c(C)c(S(=O)(=O)N2CCN(C(=O)c3ccco3)CC2)c1C", "% Inhibition @ 10 uM": -2.97}
{"smiles": "COc1ccccc1C(=O)Nc1cc(-c2nc3cc(C)ccc3o2)ccc1Cl", "% Inhibition @ 10 uM": -5.96}
{"smiles": "CC(C)C1NC(=S)N(c2ccccc2)N1", "note": "(stereo not drawn)", "% Inhibition @ 10 uM": 6.4}
{"smiles": "Cc1ccc(O)c(-n2cc3c(c2-c2ccccc2)c(=O)n(C)c(=O)n3C)c1", "% Inhibition @ 10 uM": -3.12}
{"smiles": "COc1ccc(S(=O)(=O)Nc2ccc(S(=O)(=O)N3CCOCC3)cc2)cc1C", "% Inhibition @ 10 uM": 6.57}
{"smiles": "CCN(CC)C(=O)/C(=C/c1cn(S(=O)(=O)N(C)C)c2ccccc12)NC(=O)c1ccccc1", "% Inhibition @ 10 uM": 7.77}
{"smiles": "CC1=C(C(=O)Nc2cc(C)ccn2)C(c2ccc3c(c2)OCO3)C2=C(O)CCCC2=N1", "note": "(stereo not drawn)", "% Inhibition @ 10 uM": -6.34}
{"smiles": "Cc1nc(-c2c(C)[nH]c3ccccc23)cs1", "% Inhibition @ 10 uM": 13.9}
{"smiles": "Cn1c(=O)c(-c2nc3ccccc3[nH]2)c(O)c2ccccc21", "% Inhibition @ 10 uM": 2.92}
{"smiles": "C=CCn1c(C(C)NC(=O)c2cccc(C)c2)nc2ccccc21", "note": "(stereo not drawn)", "% Inhibition @ 10 uM": -5.77}
{"smiles": "CC(=O)Nc1nonc1-c1nc2ccccc2n1Cc1cccc(C(F)(F)F)c1", "% Inhibition @ 10 uM": -1.79}
{"smiles": "N#Cc1ccc(CSc2ncn(-c3ccccc3)n2)cc1", "% Inhibition @ 10 uM": 11.1}
{"smiles": "COC(=O)c1cnn2c1NCN(CCc1ccccc1)C2", "% Inhibition @ 10 uM": -1.08}
{"smiles": "CCOC(=O)c1cc2c(=O)n3ccccc3nc2n(C2CCCCC2)/c1=N\\C(=O)c1ccco1", "% Inhibition @ 10 uM": -2.04}
{"smiles": "COc1ccc(OC)c(-n2nnc(-c3nsc(NC(=O)c4ccc(C)c(C)c4)n3)c2C)c1", "% Inhibition @ 10 uM": 7.97}
{"smiles": "CCN(CC)c1ccc(/C=C2/C(=O)NC(=S)N(c3ccccc3C)C2=O)cc1", "% Inhibition @ 10 uM": 5.66}
{"smiles": "CC(C)NS(=O)(=O)c1ccc(OCC(=O)N2CCN(c3ccc(F)cc3)CC2)cc1", "% Inhibition @ 10 uM": -4.71}
{"smiles": "O=C(c1c(F)cccc1F)N1CCN(c2cccc(C(F)(F)F)c2)CC1", "% Inhibition @ 10 uM": -8.42}
{"smiles": "CCOc1ccc(CC(=O)Nc2nccs2)cc1OCC", "% Inhibition @ 10 uM": 5.03}
{"smiles": "Cc1cc(C)n2c(SCCN3C(=O)c4ccccc4C3=O)nnc2n1", "% Inhibition @ 10 uM": 0.315}
{"smiles": "COc1ccc(-c2cc(C)no2)cc1S(=O)(=O)NCc1cccnc1", "% Inhibition @ 10 uM": -6.86}
{"smiles": "Cc1c(Br)c(C(=O)NC2C3CC4CC(C3)CC2C4)nn1C", "note": "(stereo not drawn)", "% Inhibition @ 10 uM": -2.14}
